{"source": "patent US20250346864A1", "about": "“MODULATION OF SATELLITE CELL POLARITY AND ASYMMETRIC CELL DIVISION” (Ottawa Hospital Research Institute, priority 2022, published 2025)", "key": {"[1]": {"target": "BMP-2-inducible protein kinase (BIKE) (Homo sapiens, UniProt Q9NSY1)", "sequence (Q9NSY1 whole entry)": "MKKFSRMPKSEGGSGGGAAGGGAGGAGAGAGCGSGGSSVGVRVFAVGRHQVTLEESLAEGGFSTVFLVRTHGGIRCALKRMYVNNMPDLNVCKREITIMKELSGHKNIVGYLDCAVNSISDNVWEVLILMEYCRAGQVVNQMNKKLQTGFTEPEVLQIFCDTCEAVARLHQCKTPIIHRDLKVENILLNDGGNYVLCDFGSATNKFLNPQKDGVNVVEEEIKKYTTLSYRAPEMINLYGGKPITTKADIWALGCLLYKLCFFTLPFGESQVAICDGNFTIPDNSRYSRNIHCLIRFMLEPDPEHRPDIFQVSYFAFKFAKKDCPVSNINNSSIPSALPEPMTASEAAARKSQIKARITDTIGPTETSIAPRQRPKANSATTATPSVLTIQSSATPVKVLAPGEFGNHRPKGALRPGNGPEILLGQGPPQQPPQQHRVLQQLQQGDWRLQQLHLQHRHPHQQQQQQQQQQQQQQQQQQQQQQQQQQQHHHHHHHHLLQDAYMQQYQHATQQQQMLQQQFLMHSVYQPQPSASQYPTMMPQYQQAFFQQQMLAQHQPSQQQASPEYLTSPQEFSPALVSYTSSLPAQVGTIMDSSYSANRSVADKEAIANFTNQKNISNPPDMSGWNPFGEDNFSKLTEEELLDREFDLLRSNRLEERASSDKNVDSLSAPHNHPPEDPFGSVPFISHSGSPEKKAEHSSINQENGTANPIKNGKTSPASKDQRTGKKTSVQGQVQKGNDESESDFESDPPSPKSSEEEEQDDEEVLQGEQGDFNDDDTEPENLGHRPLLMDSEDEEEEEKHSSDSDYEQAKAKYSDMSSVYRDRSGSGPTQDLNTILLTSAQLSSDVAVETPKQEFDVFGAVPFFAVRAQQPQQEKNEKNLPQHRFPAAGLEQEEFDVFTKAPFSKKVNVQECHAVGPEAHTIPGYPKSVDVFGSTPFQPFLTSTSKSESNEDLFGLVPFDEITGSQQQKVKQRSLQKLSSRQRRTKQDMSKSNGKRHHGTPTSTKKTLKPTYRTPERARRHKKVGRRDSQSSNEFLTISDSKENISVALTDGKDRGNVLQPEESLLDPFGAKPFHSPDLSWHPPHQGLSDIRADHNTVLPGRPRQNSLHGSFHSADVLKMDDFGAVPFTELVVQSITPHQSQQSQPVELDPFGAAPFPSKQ", "settings": "cited from earlier work"}, "[2]": {"target": "adapter protein-2 associated kinase 1 (AAK1) (Homo sapiens, UniProt Q2M2I8)", "sequence (Q2M2I8 whole entry)": "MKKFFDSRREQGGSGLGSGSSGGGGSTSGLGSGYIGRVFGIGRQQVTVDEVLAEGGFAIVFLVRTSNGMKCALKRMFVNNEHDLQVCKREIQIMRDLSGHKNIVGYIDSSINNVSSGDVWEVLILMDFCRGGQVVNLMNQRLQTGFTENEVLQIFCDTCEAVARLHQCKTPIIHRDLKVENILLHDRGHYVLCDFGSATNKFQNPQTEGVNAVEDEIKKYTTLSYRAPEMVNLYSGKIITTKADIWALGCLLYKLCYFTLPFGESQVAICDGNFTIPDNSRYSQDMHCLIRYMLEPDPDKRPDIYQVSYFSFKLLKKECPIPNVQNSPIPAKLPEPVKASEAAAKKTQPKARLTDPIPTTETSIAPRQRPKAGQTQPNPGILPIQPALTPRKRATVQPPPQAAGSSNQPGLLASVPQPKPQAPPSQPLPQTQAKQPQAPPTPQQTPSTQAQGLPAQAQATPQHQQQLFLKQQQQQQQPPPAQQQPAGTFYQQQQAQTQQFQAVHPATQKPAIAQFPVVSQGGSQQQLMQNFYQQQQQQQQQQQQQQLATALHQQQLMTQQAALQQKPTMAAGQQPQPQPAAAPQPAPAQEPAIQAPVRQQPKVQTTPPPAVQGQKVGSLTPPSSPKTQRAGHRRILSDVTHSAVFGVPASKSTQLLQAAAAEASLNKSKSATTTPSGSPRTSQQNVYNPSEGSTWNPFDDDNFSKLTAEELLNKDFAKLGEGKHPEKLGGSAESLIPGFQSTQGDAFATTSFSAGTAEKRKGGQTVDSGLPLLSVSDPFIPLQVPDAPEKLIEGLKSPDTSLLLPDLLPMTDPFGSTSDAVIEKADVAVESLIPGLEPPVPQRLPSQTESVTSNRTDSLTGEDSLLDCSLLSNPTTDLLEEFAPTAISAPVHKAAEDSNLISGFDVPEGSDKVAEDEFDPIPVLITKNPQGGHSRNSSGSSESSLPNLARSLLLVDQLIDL", "settings": "enzyme assay where stated; cited from earlier work"}, "[3]": {"system": "AP2M1 Thr156 phosphorylation", "settings": "dose-dependent; cited from earlier work"}, "[4]": {"system": "dystrophin-deficient mdx satellite cells", "assay": "Satellite cell divisions on cultured myofibers from Mdx mice", "type": "cell-based", "settings": "concentration not given"}, "[5]": {"system": "C57BL/10ScSn-Dmd^mdx/J (mdx) mouse model of Duchenne muscular dystrophy", "assay": "In vivo AAK1 inhibition after cardiotoxin injury of TA muscles in mdx mice", "settings": "1 mg/kg IP day 0 and 3, CTX-injured TA"}, "[6]": {"system": "C57BL/10ScSn-Dmd^mdx/J (mdx) mouse model of Duchenne muscular dystrophy", "assay": "In vivo dosage regimens in mdx mice, TA histology and single cell assay"}, "[7]": {"settings": "dosage regimen 1 (2×): 1 mg/kg IP day 0 and 3"}, "[8]": {"settings": "dosage regimen 2 (4×): 1 mg/kg IP day 0, 3, 7, 10"}}}
{"smiles": "CN(CCNc1ccc2ncc(-c3ccc(C(N)=O)cc3)n2n1)C(=O)OC(C)(C)C", "note": "[LP-922761]", "values": [{"measurement": "IC50", "setting": "[1]", "value": 24, "unit": "nM"}]}
{"smiles": "Cc1nccc2c1c(=O)n(C)c1cc(OC[C@@H](N)CC(C)C)c(C#N)cc21", "note": "[BMT-090605]", "values": [{"measurement": "IC50", "setting": "[2]", "value": 0.6, "unit": "nM"}]}
{"smiles": "CCN(CC)S(=O)(=O)Nc1cccc(-c2ccc3c(NC(=O)C4CC4)n[nH]c3c2)c1", "note": "[SGC-AAK1-1, N-(6-(3-(N,N-Diethylsulfamoylamino)phenyl)-1H-indazol-3-yl) cyclopropanecarboxamide]", "values": [{"measurement": "ECmax, downregulation of cellular AP2M1 Thr156 phosphorylation level", "setting": "[3]", "value": "~12.5", "unit": "µM"}]}
{"smiles": "CC(C)C[C@](C)(N)COc1ccc(-c2ccnc(C(F)F)c2)nc1C(F)F", "note": "[LX9211, (S)-1-((2′,6-bis(difluoromethyl)-[2,4′-bipyridin]-5-yl)oxy)-2,4-dimethylpentan-2-amine]", "values": [{"measurement": "asymmetric division of mdx satellite stem cells", "setting": "[4]", "value": "stimulated"}, {"measurement": "distribution of minimum myofiber Feret", "setting": "[5]; day 10, histology, vs vehicle", "value": "significant shift"}, {"measurement": "increase in the percentage of MyoG+ cells", "setting": "[5]; day 10, single cell assay, vs DMSO", "value": "~100", "unit": "%"}, {"measurement": "% of Pax7-positive (Pax7+) cells", "setting": "[5]; day 10, vs DMSO", "value": "not"}, {"measurement": "muscle mass (TA area)", "setting": "[6]; [7]", "value": "Neither dosage regimen 1 (“2×”) or dosage regimen 3 (“7×”) significantly increased"}, {"measurement": "number of MyoG+ cells", "setting": "[6]; [7]", "value": "increased"}, {"measurement": "percentage of MyoG+ cells", "setting": "[6]; [7]", "value": "Neither dosage regimen 1 (“2×”) or dosage regimen 3 (“7×”) significantly increased"}, {"measurement": "Pax7+ cells", "setting": "[6]; [8]", "value": "not"}, {"measurement": "increase in the number of MyoG+ cells", "setting": "[6]; [8]", "value": "~100", "unit": "%"}, {"measurement": "increase in the percentage of MyoG+ cells", "setting": "[6]; [8]", "value": "~100", "unit": "%"}, {"measurement": "muscle mass (TA area)", "setting": "[6]; [8]", "value": "increased"}, {"measurement": "percentage of MyoG+ cells", "setting": "[6]; dosage regimen 3 (7×): 1 mg/kg IP day 0, 3, 5, 7, 10, 12, 14, 17", "value": "Neither dosage regimen 1 (“2×”) or dosage regimen 3 (“7×”) significantly increased"}]}
{"smiles": "CC(=O)Nc1cc2c(cn1)COc1cc(OC[C@@](C)(N)CC(C)C)ccc1-2", "note": "[BMT-124110]", "values": [{"measurement": "IC50", "setting": "[2]", "value": 0.9, "unit": "nM"}]}
